SMILES strings stand for the structures. Several values for one entry are separate records, joined by “and”; a condition that tells them apart may be missing. Identical values can stand only once.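 Tested at 5 concentrations; 48 h exposure; 96-well plates; endpoints linearly interpolated, else capped at highest concentration. GI50 is the concentration that inhibits growth by half. TGI marks complete inhibition of growth.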 Peptide text beside a SMILES is read from it. * marks the point of attachment. Boc = CC(C)(C)OC(=O)*; OtBu = CC(C)(C)O*

The subject of this test is NCI-H322M lung. Briefly: DTP human tumour cell line panel, 48 h.
One may read the GI50 as the concentration at which growth is held to half of that of the control. In general, TGI refers to the concentration giving total growth inhibition. The low end stands for more potent growth arrest, the high end for less potent growth arrest. Take `CN1CC[C@H](N(C)C(=O)N2CC(c3cc(F)ccc3F)=C[C@@]2(CO)c2ccccc2)[C@H](F)C1`: the GI50 was 0.00653 µM and the concentration for total growth inhibition (TGI) was greater than 100 µM.
As to `FC(F)(F)c1ccc2c(c1)nc(Cc1ccc(Cl)cc1)n2CC1CCCN2CCCCC12` (stereo not drawn), the TGI was determined as 24.8 µM.
The compound `COc1ccc2c(c1)SC1=Nc3sc4cc(OC)ccc4[n+]3CN12` yielded a TGI greater than 100 µM.
As for `CC1(C)OC(COP2OCCO2)[C@H](COP2OCCO2)O1` (stereo partly drawn), the TGI was greater than 100 µM.
As to `CC(C)CC(=O)O[C@H]1C(=O)O[C@@H]2C[C@H]3[C@H](C)C(=O)C(O[C@@H]4O[C@H](CO)[C@@H](O)[C@H](O)[C@H]4O)=C[C@]3(C)[C@H]3[C@@H](O)[C@H](O)[C@]4(C(=O)O)OC[C@]32[C@@H]14`, the GI50 was greater than 100 µM and the TGI was greater than 100 µM.
Turning to `CNC(=S)N/N=C/CSC/C=N/NC(=S)NC`, the GI50 is greater than 100 µM and the concentration for total growth inhibition (TGI) was greater than 100 µM.
Regarding `N/C(=N\O)c1cn(C2OC(CO)C(O)C2O)c2ncnc(N)c12` (stereo not drawn), the GI50 was 0.513 µM and the TGI was greater than 47.9 µM.
In the case of `CC1CC(=O)C(CC(=O)O)[C@H]1C(C(=O)C(=O)Nc1cc(Cl)ccc1Cl)[N+](=O)[O-]` (stereo partly drawn), the TGI was greater than 100 µM.
For `CCCN1CCCC(c2ccc(Nc3nc(Nc4cc(F)ccc4C(N)=O)c4cc[nH]c4n3)c(OC)c2)C1` (stereo not drawn), the GI50 was 0.314 µM and the TGI came to 4.57 µM.
The like results for `CC(=O)[O-].O=C([CH-]C(=O)c1ccccc1)c1ccccc1.O=C([CH-]C(=O)c1ccccc1)c1ccccc1.[Dy+3]` were, in that order, 12.3 µM and 58.5 µM.
Compound `C=CC(C)(C)[C@@]12CC3C(=O)N[C@@H](Cc4ccccc4)C(=O)N3[C@@H]1N(C(C)=O)c1ccccc12` (stereo partly drawn) showed a TGI greater than 100 µM.
Take `CC(=O)Nc1ccc(S(=O)(=O)N2C(=O)CCC2C(=O)Nc2ccccc2)cc1` (stereo not drawn): the GI50 is 3.39 µM and the TGI is 26.1 µM.
For `NS(=O)(=O)c1ccc(NCc2cccc3c(=O)c4ccc(Cl)cc4oc23)cc1`, the TGI was greater than 100 µM.
In turn, `CC(=O)O[C@H]1CC[C@@]2(C)C(=CC[C@@H]3[C@@H]2CC[C@]2(C)C(=O)/C(=C\c4ccccc4)C[C@@H]32)C1` gave a TGI greater than 100 µM.
In the case of `COc1nc2c(c(=O)[nH]1)N=C(c1ccc([N+](=O)[O-])cc1)CC(c1ccccc1)N2` (stereo not drawn), the concentration for total growth inhibition (TGI) is greater than 100 µM.
For `O=C1OCC2=C1C(c1ccc(Cl)cc1)c1cc3c(cc1O2)OCO3` (stereo not drawn), the TGI is greater than 100 µM.
With `CCN(CC)CCCC(C)Nc1ccnc2cc(OC)ccc12` (stereo not drawn), the GI50 was 29.3 µM and the TGI was found to be 84.6 µM.
For `COc1cccc(-c2cc(-c3ccc(Nc4nc(Nc5ccc(Cl)cc5)nc(Nc5ccc(Cl)cc5)n4)cc3)nc(N)c2C#N)c1` the same measures were 57.5 µM and greater than 100 µM.
`CC(C(=O)NCNC(=O)c1ccccc1)C(=O)NCc1ccccc1` (stereo not drawn) yielded a TGI greater than 100 µM.
In the case of `O=C(Nc1cc(Cl)ccc1Cl)c1cc2ccccc2oc1=O`, the TGI was greater than 100 µM.
Regarding `NS(=O)(=O)c1ccc(NNc2c3ccccc3nc3c(C(=O)Nc4ccc(S(N)(=O)=O)cc4)cccc23)cc1`, the TGI is greater than 100 µM.
As for `COc1ccc(C2OC2C(=O)C23CC4CC(CC(C4)C2)C3)cc1` (stereo not drawn), the TGI was greater than 100 µM.
`CCc1cccc(CC)c1NC1=CC(=O)C(=O)c2ccccc21` yielded a TGI of 41.8 µM.
In turn, `N#CC1(C2CC(=O)N(c3ccccc3)C2=O)CCCCC1=O` (stereo not drawn) had a TGI greater than 100 µM.
`CCOC(=O)c1sc(N)nc1N1CCCC1`: the TGI is greater than 100 µM.
In the case of `COc1cc(C(=O)N[C@@H]2CCCN(C)C2)ccc1Nc1ncc2c(n1)N(C1CCCC1)CC(C)(C)C(=O)N2C`, the GI50 is 9.41 µM and the concentration for total growth inhibition (TGI) stood at 22.9 µM.
The compound `CCOC(=O)c1c2ccccc2n2c(=O)n(-c3ccccc3)nnc12` came in with a TGI greater than 100 µM.
`Cc1ccccc1C1N=C2Oc3ccccc3C=C2C(=O)N1` (stereo not drawn): the GI50 was 10.1 µM and the TGI is greater than 100 µM.
For the compound `NC(C(=O)O)C(O)c1cnc[nH]1` (stereo not drawn), the TGI was greater than 100 µM.
`COc1cc(Br)c(C2OCCCO2)cc1OCc1ccccc1` yielded a TGI greater than 100 µM.
Turning to `O=P(c1ccccc1)(c1ccccc1)C1CC=C2CCCCCC2C1` (stereo not drawn), the TGI is 73.6 µM.
Take `CN(C)CCCn1c2c(c3ccc(N4CCNCC4)cc3c1=O)C(=O)c1ccccc1-2`: the GI50 is 0.451 µM and the TGI was 2.29 µM.
`O=C(O)CN1CCN2CCOCCN(CC1)CCN(CC(=O)O)CC2` came in with a TGI greater than 100 µM.
Take `CCCCP1(=O)C=CC(Cl)=C(C)C1` (stereo not drawn): the TGI is greater than 100 µM.
`Cc1ccc(Nc2nc3ccccc3nc2NS(=O)(=O)c2ccc(N)cc2)cc1` registered a TGI greater than 100 µM.
Take `c1c[nH]c(CN2CCN(Cc3ncc[nH]3)CC2)n1`: the TGI is greater than 100 µM.
`Cc1cc(Br)ccc1N=NC1C(=O)ON=C1c1ccccc1` (stereo not drawn) displayed a TGI greater than 100 µM.
`COc1cc(Nc2nc(NS(=O)(=O)c3cc(C)c(Cl)cc3S)n[nH]2)cc(OC)c1OC` gave a TGI greater than 100 µM.
Same read-out and setting: the value for `COc1ccc(CCN2C(=O)C(=O)C(C(=O)c3ccccc3)C2c2ccccc2)cc1OC` (stereo not drawn) was greater than 100 µM; that for `NC(Cc1c2ccccc2cc2ccccc12)C(=O)O` (stereo not drawn) was greater than 100 µM; that for `C(#C[C@@]12CCC[C@@H]1NCO2)c1ccc2c(c1)OCO2` was greater than 100 µM.
On to `Fc1cnccc1-c1nc2ccc3[nH]ncc3c2c2c1CCCC2`, for which the GI50 was 1.83 µM and the TGI is greater than 100 µM.
As to `CCCCc1c2c([n+]([O-])c3c1CCCC3)CCCC2`, the TGI is greater than 100 µM.
Still for that read-out and setting: as for `Cc1[nH]n(C(=O)Cc2ccccc2)c(=O)c1/C=C1\C(=O)C=Cc2ccccc21`, the figure is greater than 100 µM; as for `CC(=O)OCC1OC(Sc2nc(-c3ccccc3)c(C#N)c(=O)n2C2OC(COC(C)=O)C(OC(C)=O)C(OC(C)=O)C2OC(C)=O)C(OC(C)=O)C(OC(C)=O)C1OC(C)=O` (stereo not drawn), greater than 100 µM.
The compound `CCCCCCCCCCCCCCCCCCCCCCC(=O)N[C@H]1CCc2cc(OC)c(OC)c(OC)c2-c2ccc(SC)c(=O)cc21` registered a TGI greater than 100 µM.
With `CCOC(=O)c1cn2c(n1)sc1cc([N+](=O)[O-])ccc12`, the TGI was greater than 100 µM.
Same read-out and setting: as for `Cc1cc2c(=O)cc(-c3ccncc3)oc2c(C(N)=O)c1C`, the figure is greater than 100 µM.
Consider `C/C(=C/C(=O)N(C)c1ccccc1Cl)O[Si](C(C)C)(C(C)C)C(C)C`, for which the TGI stood at 61.4 µM.
On to `O=C1C(CN2CCCC2)CCC1CN1CCCC1` (stereo not drawn), for which the TGI was greater than 100 µM.
Consider `O=[N+]([O-])c1ccc(-c2ccc([C@H]3CC(c4cc(F)c(Cl)cc4Cl)=NN3)o2)cc1`, for which the TGI was greater than 100 µM.
In turn, `O=C(CC1(O)C(=O)Nc2ccc(Br)cc21)c1cccc([N+](=O)[O-])c1` (stereo not drawn) had a total growth inhibition concentration (TGI) greater than 100 µM.
In turn, `N#Cc1cccc(C2SCc3nc4ccccc4n32)c1` (stereo not drawn) yielded a TGI greater than 100 µM.
For the compound `CC12CCC(C(=Nc3ccc([N+](=O)[O-])cc3)C1=O)C2(C)C` (stereo not drawn), the TGI is greater than 100 µM.
For the compound `Cc1cc(C)c(CNC(=O)c2cc(Cl)c3c(c2C)O[C@@](C)(C2CCC(N(C)C)CC2)O3)c(=O)[nH]1` (stereo partly drawn), the GI50 is greater than 100 µM and the TGI was greater than 100 µM.
`CC[C@H]1CNC(=O)CC1CC(=O)OC` (stereo partly drawn) yielded a concentration for total growth inhibition (TGI) greater than 100 µM.
Take `COc1ccc2c(c1)OCC1c3cc(OC)ccc3OC21` (stereo not drawn): the GI50 is greater than 100 µM and the TGI is greater than 100 µM.
As for `CSc1cnc2ccccc2c1Sc1cn(C)c2ccccc2c1=O`, the TGI amounted to 71 µM.
As for `Cc1cccc2c(=O)c3cccc(CC(=O)O)c3oc12`, the TGI was greater than 100 µM.
With `COc1ncc(-c2ccc3nc(N)n(-c4ccccc4C(F)(F)F)c(=O)c3c2)cc1S(=O)(=O)Nc1ccc(F)cc1F`, the concentration for 50% growth inhibition (GI50) was 0.384 µM and the TGI is 5.57 µM.
Turning to `COc1cc(CC2c3cc(OC)c(OC)cc3CCN2C)c(C(=O)O)cc1OC` (stereo not drawn), the TGI is greater than 100 µM.
On to `C=C1C(=O)O[C@H]2[C@H]1CC/C(COC(=O)NCc1ccc(Cn3c(=O)sn(CCCI)c3=O)cc1)=C\CC[C@@]1(C)O[C@@H]21`, for which the GI50 is 11.6 µM and the TGI was determined as 24.1 µM.
In turn, `CC(=O)O[C@@H]1[C@H]2O[C@H]2[C@H]2O[C@@]2(COC(=O)c2ccccc2)[C@H]1OC(C)=O` showed a TGI greater than 100 µM.
In turn, `COCc1nc(C#N)c(N)o1` came in with a TGI greater than 10 µM.
Compound `C[C@@H](NC(=O)Nc1cccc(C(=O)Nc2cc(C(C)(C)C)ccc2C(=O)O)n1)c1ccccc1` yielded a TGI greater than 100 µM.
Take `CC1(C)OC2OC(/C=C/[N+](=O)[O-])C3OC(C)(C)OC3C2O1` (stereo not drawn): the TGI turned out to be 31.7 µM. This lies in the double-digit micromolar range.
On the same count and under the same terms, the value for `Cn1c2ccccc2n2c3ccccc3c3nnc(N)c-3c12` was greater than 100 µM; that for `CCN(CC)CCN1C(=O)c2cccc3cc(N)cc(c23)C1=O` was 25.8 µM.
Regarding `FC(F)(F)c1ccc(-c2cnc(-c3nn[nH]n3)nc2NC2CCCCCC2)cc1`, the GI50 is greater than 10 µM and the TGI is greater than 10 µM.
Compound `CC(C)OP(=O)(OC(C)C)C(=Nc1ccc(N=C(NNc2ccc([N+](=O)[O-])cc2)P(=O)(OC(C)C)OC(C)C)cc1)NNc1ccc([N+](=O)[O-])cc1` displayed a TGI greater than 100 µM.
Take `CC(C)C1CC(CO)(CNc2nc(N)nc(Cl)c2C=O)C1` (stereo not drawn): the TGI came to 10.5 µM. That is a double-digit micromolar value.
On to `CC(C)(C)OC(=O)CC(NC(=O)OC(C)(C)C)C(=O)NC(Cc1ccccc1)C(N)=O` (stereo not drawn) (Boc-Asp(OtBu)-Phe-NH2; configuration not given here), for which the TGI was greater than 100 µM.
Turning to `CC(=O)OC(C(=O)NNC(=O)OC(C)(C)C)c1ccccc1` (stereo not drawn), the TGI was greater than 100 µM.
As for `O=c1[nH]c(-c2ccncc2)nc2sc3c(c12)CCCCCC3`, the GI50 was greater than 100 µM and the TGI is greater than 100 µM.
As for `COc1ccccc1Nc1nc(N)nc(N)c1N`, the TGI was greater than 100 µM.
For the compound `O=c1oc2cc(O)ccc2c(O)c1C(c1ccc(/C=C/c2ccccc2)cc1)c1c(O)c2ccc(O)cc2oc1=O`, the TGI was greater than 100 µM.
Consider `Nc1cc2c(C3OC(CO)C(O)C3O)[nH]nc2c(=S)[nH]1` (stereo not drawn), for which the TGI was greater than 100 µM.
On the same count and under the same terms, the value for `Cc1c(CNc2ccc(Cl)c(Cl)c2Cl)cnc2nc(N)nc(N)c12` was greater than 44.6 µM; that for `CN(C)CCC(C#N)(c1ccccc1)c1ccccc1` was greater than 100 µM.
For the compound `C=C(C)[C@@H]1CC[C@]2(C(=O)OC)CC[C@]3(C)[C@H](CC[C@@H]4[C@@]5(C)CC/C(=N\OCCC(=NCCC#N)NOCCC#N)C(C)(C)[C@@H]5CC[C@]43C)[C@@H]12`, the GI50 was greater than 50 µM and the TGI was greater than 50 µM.
As for `O=C1Nc2ccc(I)cc2/C1=C/c1cc(Br)c(O)c(Br)c1`, the GI50 was > 21.7 µM and 25.2 µM; the TGI is greater than 72.9 µM.
Consider `COc1cc(N(CCC#N)CCC#N)ccc1/C(N=Nc1cccc([N+](=O)[O-])c1)=N\NC(=O)c1ccc(C)cc1`, for which the TGI was greater than 100 µM.

The values above are taken from PubChem BioAssay (NCI).
